# Results taken from the supplement of paper PMC9135407.
# Several values for one entry are separate records, joined by “and”; a condition that tells them apart may be missing. Equal entries are not always repeated. Structures can show the parent of a compound that is named as a salt. The campaign covered roughly 5,800 compounds. About 620 (11%) showed activity.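 The calls were made as follows: active = score above a cut-off or among the top three wells of a plate; in these data no inactive exceeds 0.85.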 This is a selection; strong and weak results do not stand in their true shares.
# Test system: primary human hepatic stellate cells (donor 1)
# Assay: scaled lipid accumulation score (0 = DMSO-like, 1 = nortriptyline-like); higher = stronger HSC inactivation (lipid re-accumulation), active = hit call of the paper
# Details: 48 h
# [1] = library stock concentration: 3.33 mM
# [2] = library stock concentration: 10 mM
# [3] = library stock concentration: 1 mM
# [4] = library stock concentration: 7.7 mM
# [5] = library stock concentration: 9.7 mM
# [6] = library stock concentration: 7.2 mM
# [7] = library stock concentration: 6.9 mM
compound,measurement,setting,value
OC(c1ccccc1)(c1ccccc1)C1CCNCC1 [Azacyclonol],scaled lipid accumulation score,,inactive: 0.603
same,scaled lipid accumulation score,[1],inactive: ≤ 0
same,scaled lipid accumulation score,[2],inactive: 0.393
CC(O)CN1CCN(CC(=O)[O-])CCN(CC(=O)[O-])CCN(CC(=O)[O-])CC1.[Gd+3] (configuration not stated),scaled lipid accumulation score,[2],inactive: ≤ 0
"COc1ccc(CC2c3cc(OC)c(OC)cc3CCN2C)cc1OC (racemic) [Laudanosine (R,S)]",scaled lipid accumulation score,,inactive: ≤ 0
Oc1ccc(Cl)cc1Cc1cc(Cl)ccc1O [Dichlorophene],scaled lipid accumulation score,[2],inactive: ≤ 0
CCCCC/C=C\C/C=C\C/C=C\C/C=C\CCCC(=O)NCC(=O)O [Arachidonoyl Glycine],scaled lipid accumulation score,[3],inactive: 0.02
CCCCC/C=C\C/C=C\C/C=C\C/C=C\CCCC(=O)NCC(=O)O [N-arachidonoylglycine],scaled lipid accumulation score,[3],inactive: ≤ -0.021
Cc1ccc2c(c1)C1(CCN(CCc3nc(-c4ccccc4)oc3C)CC1)OC(=O)N2,scaled lipid accumulation score,[2],inactive: 0.228
O=c1c2ccccc2[se]n1-c1ccccc1 [Ebselen],scaled lipid accumulation score,library stock concentration: 18.2 mM,active: 0.952
CCC1(C)CC(=O)NC(=O)C1 [Bemegride],scaled lipid accumulation score,,inactive: ≤ 0
same,scaled lipid accumulation score,[1],inactive: ≤ 0
same,scaled lipid accumulation score,[2],inactive: ≤ -0.001
C[C@@]12C(=O)OC(=O)[C@]1(C)[C@H]1CC[C@@H]2O1 [Cantharidin],scaled lipid accumulation score,,inactive: 0.374
same,scaled lipid accumulation score,[2],inactive: ≤ 0 and inactive: 0.706
same,scaled lipid accumulation score,library stock concentration: 25.5 mM,inactive: 0.288
COC(C)(C)CCC[C@H](C)C/C=C/C(C)=C/C(=O)OC(C)C [Methoprene (s)],scaled lipid accumulation score,[2],inactive: 0.104
CCCCC/C=C\C/C=C\C/C=C\C/C=C\CCCC(=O)NC1CC1 [Arachidonoyl Cyclopropylamide],scaled lipid accumulation score,[3],inactive: ≤ 0
CCCC(C)(COC(N)=O)COC(=O)NC(C)C (configuration not stated) [Carisoprodol],scaled lipid accumulation score,,inactive: 0.078
same,scaled lipid accumulation score,[4],inactive: ≤ -0.001
same,scaled lipid accumulation score,[2],inactive: ≤ 0
Cc1ccccc1-n1c(Cn2ncc3c(N)ncnc32)nc2cccc(C)c2c1=O,scaled lipid accumulation score,[1],inactive: ≤ 0
same,scaled lipid accumulation score,[2],inactive: ≤ 0
O=C1C=C2C(=CCOC2O)O1 (configuration not stated) [Patulin],scaled lipid accumulation score,[2],active: 1.21
C/C(O)=C(\C#N)C(=O)Nc1cc(Br)ccc1Br,scaled lipid accumulation score,[2],inactive: ≤ 0
CNCCCCCCN(C)N(O)N=O,scaled lipid accumulation score,[3],inactive: 0.005
C[C@H]1CNCCc2ccc(Cl)cc21 [Lorcaserin HCl],scaled lipid accumulation score,[1],inactive: 0.087
same,scaled lipid accumulation score,[2],inactive: 0.501
FC(F)(F)c1cccc(N2CCNCC2)c1,scaled lipid accumulation score,[2],inactive: 0.39
C=C1C[C@@H]2[C@H](CC[C@]3(C)C(=O)CC[C@@H]23)[C@@]2(C)C=CC(=O)C=C12 [Exemestane],scaled lipid accumulation score,[1],inactive: ≤ 0
same,scaled lipid accumulation score,library stock concentration: 6.7 mM,inactive: 0.074
same,scaled lipid accumulation score,[2],inactive: ≤ 0
C=C1C[C@@H]2[C@H](CC[C@]3(C)C(=O)CC[C@@H]23)[C@@]2(C)C=CC(=O)C=C12,scaled lipid accumulation score,[2],inactive: 0.378
COc1ccccc1N1CCNCC1 [1-(2-Methoxyphenyl)piperazine hydrochloride],scaled lipid accumulation score,[2],inactive: ≤ 0
"CC(=O)[C@H]1CC[C@H]2[C@@H]3CC[C@H]4C[C@H](O)CC[C@]4(C)[C@H]3C(=O)C[C@]12C [5alpha-Pregnan-3alpha-ol-11,20-dione]",scaled lipid accumulation score,[2],inactive: ≤ -0.055
CC(=O)[C@H]1CC[C@H]2[C@@H]3CC[C@H]4C[C@H](O)CC[C@]4(C)[C@H]3C(=O)C[C@]12C [Alfaxalone],scaled lipid accumulation score,,inactive: ≤ 0
CC(=O)c1c(O)c(C)c(O)c(Cc2c(O)c3c(c(C(=O)/C=C/c4ccccc4)c2O)OC(C)(C)C=C3)c1O [Rottlerin],scaled lipid accumulation score,[5],inactive: 0.015
same,scaled lipid accumulation score,[2],inactive: 0.006
CCN(CC)CCO[C@H]1CC[C@@]2(C)C(=CC[C@@H]3[C@@H]2CC[C@]2(C)C(=O)CC[C@@H]32)C1.Cl,scaled lipid accumulation score,[2],active: 1.39
CCCCCCC(=O)O[C@H]1CC[C@H]2[C@@H]3CC(=O)C4=CC(=O)CC[C@]4(C)[C@H]3CC[C@]12C [6-keto Testosterone Enanthate],scaled lipid accumulation score,[3],inactive: 0.048
c1ccc2c(c1)Sc1ccccc1N2CC1CN2CCC1CC2 (configuration not stated),scaled lipid accumulation score,[2],active: 1.03
CCCCC/C=C\C/C=C\C/C=C\CCCCCCC(=O)NCCO [Dihomo-.gamma.-Linolenoyl Ethanolamide],scaled lipid accumulation score,[3],inactive: 0.003
CCOP(=S)(OCC)Oc1ccc2c(C)c(Cl)c(=O)oc2c1,scaled lipid accumulation score,[2],inactive: ≤ 0
Cn1c2c(c3ccccc31)CCNCC2,scaled lipid accumulation score,[2],inactive: 0.326
O=C1C=CC(=O)C=C1 [p-Benzoquinone],scaled lipid accumulation score,[2],inactive: 0.052
CN(C)[C@@H]1C(=O)C(C(N)=O)=C(O)[C@@]2(O)C(=O)C3=C(O)c4c(O)cccc4[C@@](C)(O)[C@H]3[C@H](O)[C@@H]12 [Oxytetracycline (Terramycin)],scaled lipid accumulation score,[1],inactive: ≤ 0
same,scaled lipid accumulation score,[2],inactive: ≤ 0
CN1C(=O)CCS(=O)(=O)C1c1ccc(Cl)cc1 (configuration not stated) [Chlormezanone],scaled lipid accumulation score,,inactive: ≤ 0
same,scaled lipid accumulation score,[1],inactive: ≤ 0
same,scaled lipid accumulation score,[2],inactive: ≤ 0 and inactive: 0.012
CO[C@@H]1C=C2CCN(C)[C@@H]2C2c3cc4c(cc3C(=O)OC21)OCO4 (some centres not stated) [Ungerine nitrate],scaled lipid accumulation score,,inactive: ≤ 0
O=P1(N(CCCl)CCCl)NCCCO1 (configuration not stated) [Cytoxan],scaled lipid accumulation score,[2],inactive: ≤ 0
O=P1(N(CCCl)CCCl)NCCCO1 (configuration not stated) [Cyclophosphamide monohydrate],scaled lipid accumulation score,[4],inactive: ≤ 0
same,scaled lipid accumulation score,[2],inactive: ≤ 0
O=P1(N(CCCl)CCCl)NCCCO1 (configuration not stated) [Cyclophosphamide hydrate],scaled lipid accumulation score,[6],inactive: 0.021
same,scaled lipid accumulation score,[2],inactive: ≤ 0
CCCN[C@@H]1CCc2c(OC)cccc2[C@@H]1C [(+)-AJ 76 hydrochloride],scaled lipid accumulation score,[2],inactive: 0.202
c1ccc2c(c1)sc1ccccc12 [Dibenzothiophene],scaled lipid accumulation score,[1],inactive: ≤ 0
same,scaled lipid accumulation score,[2],inactive: ≤ -0.001 and inactive: ≤ 0
same,scaled lipid accumulation score,library stock concentration: 10.9 mM,inactive: ≤ -0.001
CCCCC/C=C\C/C=C\C/C=C\C/C=C\CCCC(=O)NCCCC(=O)O [N-Arachidonoyl-.gamma.-Aminobutyric Acid],scaled lipid accumulation score,[3],inactive: 0.032
CCCn1c(C)c(C(=O)c2cccc3ccccc23)c2ccccc21,scaled lipid accumulation score,[3],inactive: ≤ 0
CCCCCCC(=O)O[C@H]1CC[C@H]2[C@@H]3C=CC4=CC(=O)CC[C@]4(C)[C@H]3CC[C@]12C [.DELTA.6-Testosterone Enanthate],scaled lipid accumulation score,[3],inactive: ≤ 0
CNC(=O)Oc1ccccc1OC(C)C,scaled lipid accumulation score,[2],inactive: 0.046
O=C(O)Cc1cnc[nH]1 [Imidazole-4-acetic acid hydrochloride],scaled lipid accumulation score,[2],inactive: ≤ -0.07
CC(=O)NC1CCSC1=O (configuration not stated) [Citiolone],scaled lipid accumulation score,[2],inactive: ≤ -0.027
O=C(O)[C@@H]1CCN1 [L-azetidine-2-carboxylic acid],scaled lipid accumulation score,[2],inactive: 0.097
c1ccc(/N=N/c2ccccc2)cc1 [Azobenzene],scaled lipid accumulation score,[2],inactive: ≤ 0
CCCCCCCCCCCCCCCC[n+]1ccccc1 [Cetylpyridinium chloride],scaled lipid accumulation score,library stock concentration: 5.9 mM,inactive: 0.13
same,scaled lipid accumulation score,[2],inactive: 0.654
CCCCCCCCCCCCCCCC[n+]1ccccc1 [Cetylpyridinium Chloride],scaled lipid accumulation score,[1],inactive: ≤ 0
same,scaled lipid accumulation score,[2],inactive: 0.277
C=CCC1(C(C)CCC)C(=O)NC(=S)NC1=O (configuration not stated) [Thiamylal sodium],scaled lipid accumulation score,[6],inactive: 0.022
c1ccc2c3c([nH]c2c1)CNCC3,scaled lipid accumulation score,[2],inactive: 0.806
Fc1cc(F)c2c(c1)[C@H]1C=CC[C@@H]1C(c1cccnc1)N2 (some centres not stated) [Golgicide A],scaled lipid accumulation score,[1],active: 0.872
same,scaled lipid accumulation score,[2],active: 1.03
COc1ccc(CCN2CCC(Nc3nc4ccccc4n3Cc3ccc(F)cc3)CC2)cc1 [Astemizole],scaled lipid accumulation score,,active: 1
Cc1ccc(-n2nccn2)c(C(=O)N2CCN(c3nc4cc(Cl)ccc4o3)CC[C@H]2C)c1 [Suvorexant (MK-4305)],scaled lipid accumulation score,[1],inactive: ≤ -0.009
same,scaled lipid accumulation score,[2],inactive: ≤ 0
"COc1ccc2c(c1OC)C(=O)O[C@H]2[C@@H]1c2cc3c(cc2CCN1C)OCO3 [1s,9r-hydrastine]",scaled lipid accumulation score,[2],inactive: ≤ 0
"CCCN1CCO[C@@H]2c3cc(O)ccc3OC[C@H]21 [(?)-PD 128,907 hydrochloride]",scaled lipid accumulation score,[2],inactive: ≤ 0
CCCN1CCO[C@@H]2c3cc(O)ccc3OC[C@H]21,scaled lipid accumulation score,[1],inactive: ≤ 0
same,scaled lipid accumulation score,[2],inactive: 0.074 and inactive: ≤ -0.006
CCOP(=S)(OCC)Oc1nc(Cl)c(Cl)cc1Cl,scaled lipid accumulation score,[2],inactive: ≤ 0
CCCCCCC(=O)CCCCCC/C=C/C[C@@H](O)[C@H](O)[C@@](N)(CO)C(=O)O [Myriocin],scaled lipid accumulation score,[3],inactive: 0.023
Oc1cc(Cl)ccc1Oc1ccc(Cl)cc1Cl [Triclosan],scaled lipid accumulation score,[7],inactive: 0.456
same,scaled lipid accumulation score,[2],inactive: 0.163
CC1(C)C(C=C(Cl)Cl)C1C(=O)OC(C#N)c1cccc(Oc2ccccc2)c1 (configuration not stated),scaled lipid accumulation score,[2],inactive: 0.476
CC1(C)C(C=C(Cl)Cl)C1C(=O)OC(C#N)c1cccc(Oc2ccccc2)c1 (configuration not stated) [Cypermethrin],scaled lipid accumulation score,library stock concentration: 12 mM,inactive: 0.455
CC(C)n1cnc2c(C(=O)N[C@H]3CN4CCC3CC4)cc(Cl)cc21,scaled lipid accumulation score,[2],inactive: 0.464
c1cncc([C@@H]2CCCN2)c1 [Nornicotine],scaled lipid accumulation score,[2],inactive: ≤ 0
COC(=O)/C=C/C(=O)N[C@@H]1CC[C@@]2(O)[C@H]3Cc4ccc(O)c5c4[C@@]2(CCN3CC2CC2)[C@H]1O5,scaled lipid accumulation score,[2],inactive: 0.325
O=C1CCCN1CC#CCN1CCCC1 [Oxotremorine sesquifumarate],scaled lipid accumulation score,[5],inactive: ≤ -0.006
same,scaled lipid accumulation score,[2],inactive: 0.028 and inactive: ≤ 0
O=C1CCCN1CC#CCN1CCCC1 [Oxotremorine sesquifumarate salt],scaled lipid accumulation score,[2],inactive: 0.02
CCCCC/C=C\C/C=C\C/C=C\C/C=C\CCCC(=O)N[C@H](C)COP(=O)(O)O [R-1 Methanandamide Phosphate],scaled lipid accumulation score,[3],inactive: ≤ 0
CO[C@@H]1C[C@@H](C[C@H]2CC[C@H](C)[C@H]([C@@H](C)C(=O)O)O2)O[C@]2(O[C@](C)([C@H]3CC[C@@](C)([C@@H]4O[C@@H]([C@H]5O[C@@](O)(CO)[C@H](C)C[C@@H]5C)C[C@@H]4C)O3)C[C@H]2C)[C@@H]1C [Nigericin],scaled lipid accumulation score,[7],inactive: 0.535
